Measured values reported in PMC5268738, “A sequential multi-target Mps1 phosphorylation cascade promotes spindle checkpoint signaling” (eLife, 2017).

Experiments:
APC/C^Cdc20 = APC/C^Cdc20 inhibition by MCC components (securin ubiquitination assay); assay type: biochemical, Xenopus APC/C, human Cdc20; conditions: Mad1^E–Mad2 treated with Mps1, no Bub1; Mad2^Mono, BubR1^N
[1] = test system: N-terminal fragment of Cdc20 (residues 1–170, Cdc20^N); experiment: in vitro pull-down of Mps1-treated Mad1^E–Mad2 by Cdc20^N beads; assay type: binding, human; conditions: Ni^2+ beads with Cdc20^N170-His6; Mad1 pre-treated with kinase domain of Mps1; anti-Mad1 blot
Description: Expression of Cdc20-His6 proteins containing the N-terminal regions of Cdc20 was induced by 1 mM isopropyl β-D-1-thiogalactopyranoside (IPTG) at 37 °C for 6 h. Harvested pellets were lysed in denaturing lysis buffer (100 mM NaH2PO4, 10 mM Tris-HCl, pH 8.0, 8 M Urea), and incubated overnight by gentle rocking at room temperature. After centrifugation, the supernatants were incubated with pre-equilibrated Ni^2+-NTA beads (Qiagen). Protein-bound beads were washed with 15 volumes of denaturing wash buffer (100 mM NaH2PO4, 10 mM Tris-HCl, pH 6.3, 8 M Urea). The proteins were then eluted with denaturing elution buffer (100 mM NaH2PO4, 10 mM Tris-HCl, pH 4.5, 8 M Urea). The eluted proteins were then dialyzed into the storage buffer (50 mM Tris, pH 8.0, 200 mM NaCl, 5% glycerol, 1 mM β-mercaptoethanol). […]
For kinase assays, 1 μM Cdc20^ΔN60, 40 μM Mad1^E–Mad2, or 400 nM Bub1^ΔK–Bub3 was incubated with 40 nM Bub1, 500 nM Mps1, and/or 50 nM Cdk1–Cyclin B1 at room temperature for 30 min in the kinase buffer (25 mM Tris-HCl, pH 7.7, 100 mM NaCl, 10 mM MgCl2, 5 mM NaF, 20 mM β-glycerophosphate, 0.1 mM Na3VO4 and 1 mM DTT) supplemented with 1 mM ATP. The reaction mixtures were stopped with the appropriate kinase inhibitors for further protein-binding assays, or quenched with the SDS loading buffer and analyzed by Coomassie blue staining or Western blotting. […]

binding of Mps1-treated Mad1^E–Mad2 to Cdc20^N (in words) [1]: efficiently pulled down
B1: Mad1^E–Mad2 WT: E fragment of Mad1 containing MIM and CTD, in complex with Mad2 (protein)
chain 1: SSAEQSFLFSREEADTLRLKVEELEGERSRLEEEKRMLEAQLERRALQGDYDQSRTKVLHMSLNPTSVARQRLREDHSQLQAECERLRGLLRAMERGGTVPADLEAAAASLPSSKEVAELKKQVESAELKNQRLKEVFQTKIQEFRKACYTLTGYQIDITTENQYRLTSLYAEHPGDCLIFKATSPSGSKMQLLETEFSHTVGELIEVHLRRQDSIPAFLSSLTLELFSRQTVA
chain 2: [about 200 residues left out here]
modifications: left off: GST, N-terminal, kept
Mps1-dependent, Bub1-independent MCC formation and APC/C inhibition (in words) (APC/C^Cdc20): supported Mps1-dependent MCC formation and APC/C inhibition
